Results as given in PubChem BioAssay AID485297 (National Center for Advancing Translational Sciences (NCATS), 2010).
Hit rate of the full screen: of about 320,000 compounds, about 9,100 (2.8%) were called active. Inconclusive results, whose numbers are uncertain, are shown with a selection of clear calls. The call rests on the fitted dose curve; in most records, active means well fitted activation curve with a large enough effect; inconclusive means small, poorly fitted or top-dose-only effect; inactive means no such curve, though single readings can be large or run the other way. No potency is given beside an inconclusive call; the fits are too rough.

Test: qHTS Assay for Rab9 Promoter Activators; further: nearly all actives have a fitted effect of over 60% in size
Settings: Huh7 Rab9 promoter-luciferase reporter, luminescence, 24 h; series mostly up to 9.22 µM
In short: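 Measured in stably transfected Huh7 cells bearing a Rab9 promoter–luciferase construct: 24 h compound treatment at 37 °C, followed by luminescence detection.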
Potency means the concentration at half of the fitted maximal effect; tags describe the fitted curve by direction and shape.

| Structure (SMILES) | Potency |
| --- | --- |
| COc1cccc(Nc2nnc(SCc3nc4ccccc4s3)s2)c1 | inconclusive [activator, single point] |
| CC(=O)Nc1cccc(-c2csc(Nc3ccc(Cl)cn3)n2)c1 | active: 3.16 µM |
| O=C(Oc1ccc(/C=N/NC(=O)c2ccco2)cc1)c1ccccc1 | inconclusive [activator, single point] |
| COc1ccc(C2=NN(C(=O)CCC(=O)O)C(c3ccc(OC)cc3)C2)cc1 (centres undefined) | inactive |
| c1cncc(-c2nc(-c3ccc4c(c3)OCCO4)cs2)c1 | active: 0.562 µM |
| Cc1ccc(NC(=O)c2cc3ccccc3o2)nc1 | active: 3.16 µM |
| COC(=O)c1c(C)[nH]c(C(C)=O)c1C | inactive |
| O=C1S/C(=C\C=C\c2ccco2)C(=O)N1c1ccccc1 | inconclusive [activator, single point] |
| CC(=O)N1CCN(c2ccc(NC(=O)c3ccc4ccccc4c3)cc2)CC1 | inconclusive [activator, partial curve] |
| CCN(CC)S(=O)(=O)c1cccc(C(=O)NNC(=O)c2ccc3[nH]c(=O)c(=O)[nH]c3c2)c1 | inactive |
| COc1c(O)ccc(/C=N/NC(=O)c2ccc3c(c2)OCCO3)c1[N+](=O)[O-] | inconclusive [activator, single point] |
| COc1cccc(OCc2nc3ccccc3c(=O)n2N)c1 | inconclusive [activator, single point] |
| Cc1cccn2c(=O)c3cc(C(=O)N4COCC4(C)C)sc3nc12 | inconclusive [activator, single point] |
| COc1ccc(N2C(=O)c3ccccc3NC2c2ccc(OC)c(CN3CCOCC3)c2)cc1 (centres undefined) | inconclusive [activator, single point] |
| CC(C)(C)NC(=O)c1cccc(NC(=O)CSc2ccccc2)c1 | inactive |
| Cc1c(-n2c(SCC(=O)C(C)(C)C)nc3ccccc3c2=O)c(=O)n(-c2ccccc2)n1C | inactive |
| CCCCOc1ccc(-c2csc(N)n2)cc1[N+](=O)[O-] | active: 2.82 µM |
| CSc1nnc(NC(=O)c2ccc(S(=O)(=O)N3CCOCC3)cc2)s1 | inconclusive [activator, partial curve] |
| CC(C)c1ccc2nc(SCC(=O)NCC3CCCO3)c(C#N)cc2c1 (centres undefined) | inconclusive [activator, single point] |
| COc1cccc(-c2nc3ccc(C(=O)NC(C)Cc4cccnc4)cc3o2)c1 (centres undefined) | active: 2.82 µM |
| COc1ccccc1C(=O)Nc1ccc(N2CCCCC2)cc1 | active: 3.98 µM |
| CCOc1ccc(NC(=O)C2C3CC/C=C\CCC32)cc1 (centres undefined) | inconclusive [activator, single point] |
| CC(=O)N=C1SC2CS(=O)(=O)CC2N1c1ccc(-c2nc3ccc(C)cc3s2)cc1 (centres undefined) | active: 0.891 µM |
| COc1ccccc1/C=C/C(=O)N1CCC(c2ccccc2)C1 (centres undefined) | inconclusive [activator, single point] |
| COc1cccc(CN(C)C(=O)[C@@H](NC(=O)c2ccc(C)cc2)C(C)C)c1 | inactive |

| Structure (SMILES) | Potency |
| --- | --- |
| COc1cc(C(=O)Nc2ccc(NC(=O)c3cccc(Cl)c3)nc2)cc(OC)c1OC | inconclusive [activator, single point] |
| CC1=NN(C(N)=S)C(=O)C1N=Nc1cccc2ccccc12 (centres undefined) | inconclusive [activator, partial curve] |
| O=[N+]([O-])c1ccc(N=Nc2c(Cl)cc(O)cc2Cl)cc1 | inactive |
| O=C(NCCSc1ccccc1)c1cccnc1 | inconclusive [activator, partial curve] |
| Cc1ccc(-n2ncc3c(NCc4ccccc4)ncnc32)cc1 | inconclusive [activator, partial curve] |
| COC(=O)c1ccc2nc(-c3ccc(S(C)(=O)=O)cc3)cn2c1 | inconclusive [activator, partial curve] |
| CC(C)(C)C(=O)Nc1nc(-c2ccccc2)ns1 | active: 0.631 µM |
| O=c1c(-c2ccccc2)c[nH]n1-c1cccc([N+](=O)[O-])c1 | inconclusive [activator, single point] |
| CCCOc1ccc(/C=N/Nc2cccc([N+](=O)[O-])c2)c(O)c1 | inconclusive [activator, partial curve] |
| COc1ccc(C2=CSC3=NNC4(CCCCC4)NN23)cc1 | inconclusive [activator, partial curve] |
| COc1ccc(C(=O)Nc2cccc(/C=C(\CCC(=O)O)c3nc4ccccc4s3)c2)cc1 | inconclusive [activator, partial curve] |
| Cc1csc(NC(=O)Cc2ccc(F)cc2)n1 | active: 3.55 µM |
| CCCOc1ccc(OCCSc2nnc(N)s2)cc1 | inconclusive [activator, partial curve] |
| CCc1nc(C(N)=O)c2[nH]c(=O)n(-c3ccccc3F)c2n1 | inactive |
| Cc1cc(C)nc(N/N=C/c2ccccc2)n1 | inconclusive [activator, single point] |
| Cc1ccc2nc(N3C(=O)CNC3=S)sc2c1 | inconclusive [activator, full curve] |
| Cn1c(=O)c2c(ncn2CCOc2ccc(F)cc2)n(C)c1=O | inactive |
| Nc1nc(-c2nc3ccccc3[nH]2)cs1 | active: 1.12 µM |
| C/C(=N\Nc1ccc2nncn2n1)c1cccs1 | inconclusive [activator, single point] |
| CN(CC(=O)Nc1ccc(Cl)cc1)C(=O)CNC(=O)c1ccc2ccccc2c1 | inconclusive [activator, partial curve] |
| Cc1ccc(OCCCCn2cnc3ccccc32)c(C)c1 | inactive |
| COc1ccccc1OCCNC(=O)c1ccc2c(c1)CCC2 | inconclusive [activator, single point] |
| NC(=O)c1c(NC(=O)c2cnccn2)sc2c1CCCC2 | active: 2 µM |
| CC(=O)Nc1ccc(S(=O)(=O)NCCSCc2cccc(Cl)c2)cc1 | inactive |
